Source: article PMC4336329 (PLoS ONE, 2015)
About 14,000 (4.5%) of roughly 310,000 compounds showed an effect of 50% or more. The effect is printed as a negative number. The list shows a part of the results.

biological target: human ether-à-go-go-related gene (hERG) potassium channel (human, UniProt Q12809); test: primary screen, population patch clamp on CHO cells stably expressing hERG
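Note: peak tail current of the secondary pulse compared with the same well before compound.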

Chain of human ether-à-go-go-related gene (hERG) potassium channel (Q12809 whole entry, looked up): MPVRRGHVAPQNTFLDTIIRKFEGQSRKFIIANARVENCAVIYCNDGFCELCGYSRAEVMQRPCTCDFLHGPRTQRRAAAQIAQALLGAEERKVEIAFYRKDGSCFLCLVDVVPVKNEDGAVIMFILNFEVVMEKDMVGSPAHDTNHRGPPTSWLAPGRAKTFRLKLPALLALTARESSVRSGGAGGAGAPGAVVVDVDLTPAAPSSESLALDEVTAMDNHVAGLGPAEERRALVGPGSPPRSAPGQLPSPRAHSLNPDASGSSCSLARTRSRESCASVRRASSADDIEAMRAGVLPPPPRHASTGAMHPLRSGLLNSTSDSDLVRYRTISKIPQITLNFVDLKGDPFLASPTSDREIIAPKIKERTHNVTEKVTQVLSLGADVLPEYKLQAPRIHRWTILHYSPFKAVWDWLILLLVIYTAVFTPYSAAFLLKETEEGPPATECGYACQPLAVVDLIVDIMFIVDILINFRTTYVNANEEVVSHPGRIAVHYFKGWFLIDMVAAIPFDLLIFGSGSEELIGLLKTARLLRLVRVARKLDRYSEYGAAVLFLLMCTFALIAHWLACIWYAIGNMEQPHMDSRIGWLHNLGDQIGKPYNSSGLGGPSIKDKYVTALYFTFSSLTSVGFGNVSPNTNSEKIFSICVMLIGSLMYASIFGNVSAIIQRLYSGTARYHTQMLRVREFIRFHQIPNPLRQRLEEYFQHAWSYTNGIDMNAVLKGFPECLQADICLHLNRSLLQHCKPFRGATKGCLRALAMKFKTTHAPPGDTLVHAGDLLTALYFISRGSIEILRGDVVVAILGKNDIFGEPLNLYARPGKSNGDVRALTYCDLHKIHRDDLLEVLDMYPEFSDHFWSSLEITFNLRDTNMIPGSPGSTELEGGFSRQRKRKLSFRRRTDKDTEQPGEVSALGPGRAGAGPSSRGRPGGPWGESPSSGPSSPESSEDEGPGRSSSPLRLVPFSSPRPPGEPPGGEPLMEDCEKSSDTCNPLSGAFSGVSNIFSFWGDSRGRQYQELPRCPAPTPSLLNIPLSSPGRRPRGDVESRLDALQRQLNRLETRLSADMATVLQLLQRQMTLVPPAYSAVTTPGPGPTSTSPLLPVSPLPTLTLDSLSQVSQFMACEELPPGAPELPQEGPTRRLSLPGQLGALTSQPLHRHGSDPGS

SMILES	hERG current change (%, negative = inhibition) at 10uM [%]
COc1ccc(C2=NS(=O)(=O)N(C)C(C(=O)Nc3ccc(OC)c(OC)c3)=C2)cc1	-11.9
CCCOc1ccc(-c2nc(C#N)c(NCCCn3ccnc3)o2)cc1	2.34
COc1cc(C(=O)NCCc2ccc3c(c2)OCCO3)ccc1OCC(=O)N1CCOCC1	-8.84
Nc1nc(NC(=O)/C=C\C(=O)O)nn1-c1ccccc1	27.8
O=C(O)c1cccc(S(=O)(=O)Nc2ccc3[nH]c(=O)[nH]c3c2)c1	6.79
CCNC(=O)c1cc(S(=O)(=O)N2CCSCC2)ccc1OC	14.8
COc1ccc(-c2csc(N(CCCN3CCOCC3)C(=O)CCl)n2)cc1.Cl	3.28
C[N+](C)(C)CCN1C(=O)CSC1=O.[I-]	10.3
O=C(NCc1cccnc1)Nc1ccccc1C(F)(F)F	-1.92
COc1ccc(/C=C/C(=O)NC(CCSC)C(=O)O)cc1 (stereo not shown)	-6.55
COc1ccc(O)c(/C=N/NC(=S)Nc2cccc(S(=O)(=O)N(C)C)c2)c1	-10.5
Cc1c(C=O)cnn1CCC(=O)O	4.76
O=C(CN1CCN(c2ccc(O)cc2)CC1)NC(c1ccccc1)c1ccccc1	-50.8
COc1cc(F)c(C2=CC(=O)C[C@H](c3ccc(F)cc3)C2)cc1F	21
COc1ccccc1Cn1c(SCC(=O)C(C)(C)C)nc2cc(C(=O)N3CCC4(CC3)OCCO4)ccc2c1=O	-3.73
COc1ccccc1-n1nnnc1SCC(=O)N(C)C1CCS(=O)(=O)C1 (stereo not shown)	-0.137
O=C(/C=C/c1c(F)cccc1Cl)Nc1cccnc1	23.4
C/C(=C\c1ccc(N)cc1)c1nc2ccccc2[nH]1	3.37
Cc1cc2nc(-c3ccco3)cc(C(F)(F)F)n2n1	-5.82
CCCn1c(C(C)NS(=O)(=O)c2ccccc2)n[nH]c1=S (stereo not shown)	17.7
COc1ccccc1-n1c(N)c(C(N)=O)sc1=S	19.3
Cc1ccc(NS(=O)(=O)c2cccc(C(=O)NCC(c3cccs3)N(C)C)c2)cc1 (stereo not shown)	-19.4

SMILES	hERG current change (%, negative = inhibition) at 10uM [%]
CC(C)c1ccc(NC(=S)Nc2ccc(OC(F)(F)F)cc2)cc1.Cl	17.8
O=C(NCCc1nnc2ccc(NCc3ccc(F)cc3)nn12)c1ccccc1	-29
Cc1oc2cc3oc(=O)c(CCC(=O)NCCCC(=O)O)c(C)c3cc2c1C	29.3
COc1ccc(CC2S/C(=N/N=C/c3ccc(O)cc3)NC2=O)cc1 (stereo not shown)	2.95
C=CCn1c(Cc2ccccc2)n[nH]c1=S	11.7
N#CCC(=O)N/N=C/c1ccccc1Cl	6.55
O=C(NC1CC2CCCC(C1)N2C(=O)Nc1ccccc1)C1CC1 (stereo not shown)	6.44
Cc1cc(C)nc(SCc2nnc(SCC(=O)Nc3ccc(C)c(C)c3)o2)n1	-12.1
CC(C)(C)NC(=O)c1ccc2c(c1)N(CC(=O)N1CCN(c3ccc(F)cc3)CC1)C(=O)C(C)(C)O2	-33.4
CN(CC1CCCO1)S(=O)(=O)c1ccc(C(=O)Nc2ccccc2F)cc1 (stereo not shown)	2.92
Cc1ccc(-c2nc(NCC3CCCO3)sc2C)cc1 (stereo not shown)	-20.1
CC(C)(C)c1ccc(CSc2ccc(S(=O)(=O)N3CCOCC3)cn2)cc1	5.37
O=C(CN1CCN(Cc2ccccc2Cl)C1=O)NCCCN1CCOCC1	14.6
CC(NC(=O)NC1CCCCC1)c1ccc2c(c1)OCO2 (stereo not shown)	-3.57
Cc1ccccc1NC(=O)Cc1nc(COC(=O)Cc2ccccc2F)cs1	-0.00072
Cc1ccc(C(=O)NCC(=O)O)s1	23.8
CN(C)C(=O)COC(=O)c1ccccc1NC(=O)c1ccco1	-15.7
COC(=O)[C@H]1C[C@@H]1[C@H](NC(=O)[C@H]1C[C@@H]1[C@H](NC(=O)OCc1ccccc1)c1ccccc1)c1ccccc1	-14.2
CCCCn1c(N)c(N(CCOC)C(=O)c2ccc(-c3cccc(C(F)(F)F)c3)o2)c(=O)[nH]c1=O	-28.8
COc1ccc(CNC(=O)C2CCN(C(=O)c3csc(Nc4ccc(C)cc4)n3)CC2)cc1	-35.8
CN(C)S(=O)(=O)c1cccc(-c2nn(-c3ccccc3)cc2/C=C2\SC(=S)NC2=O)c1	20.1
CN(C(=O)c1cccnc1)c1nc(-c2ccccc2)cs1	7.66

SMILES	hERG current change (%, negative = inhibition) at 10uM [%]
CS(=O)(=O)N(CC(=O)NCc1ccc2c(c1)OCO2)c1cccc(Cl)c1	-22.3
O=C(c1cn(Cc2ccccc2)nc1-c1cccnc1)N1CCc2ccccc2C1	-40.6
NC(=O)c1nsc(C(=O)N(c2cccc(F)c2)C(C(=O)NCC2CCCO2)c2c[nH]c3ccccc23)c1N (stereo not shown)	9.95
COc1ccccc1NC(=O)C(C)N(C)Cc1ccc(Cl)s1 (stereo not shown)	19.4
O=C(N/N=C/c1cccs1)C1CC(=O)N(c2ccccc2)C1 (stereo not shown)	-8.24
CN1CCN(C(c2ccccc2)c2ccc(Cl)cc2)CC1.Cl (stereo not shown)	-60.9
COc1ccc2c(c1)C(c1ccc(C)o1)=NNC(c1ccccc1)=N2	5.95
Nc1nc(N)nc(Cc2ccccc2O)n1	2.65
O=S1(=O)CCC(n2nccc2-c2ccccc2)C1 (stereo not shown)	5.87
S=C(Nc1ccc(Cl)cc1Cl)N1CCCCC1	-11.2
Cc1nnc(NC(=O)CSCc2ccccc2)s1	12.9
COc1cc(OC)c(-c2nn3c(C4CCCCC4)nnc3s2)cc1OC	-5.29
CCCCCn1c(CNC(=O)c2cccs2)nc2ccccc21	-18.6
Cc1ccc([N+](=O)[O-])c(OCCCN2C(=O)NC(C)(C)C2=O)c1	19.4
Cc1c(C(=O)NCCSCc2cccc(C(F)(F)F)c2)cnn1-c1ccc(Cl)cc1	-30.6
CCOC(=O)c1cn(CC)c2cc(N3CCSCC3)c(F)cc2c1=O	-38.8
Cc1ccc(S(=O)(=O)N2CN(Cc3ccco3)c3nc4ccccc4nc32)cc1	-11
Cc1ccc(C(=O)Nc2ccc(N3CCN(S(C)(=O)=O)CC3)cc2)cc1C	4.63
Cc1cc(C(=O)COC(=O)c2nccnc2N)c(C)n1C	26.9
CC1(C(=O)O)CCC(C(=O)NCCc2ccccc2)C1(C)C (stereo not shown)	15
N#Cc1ccccc1OCc1cccc(S(=O)(=O)N2CCOCC2)c1	-38.9
FC(F)(F)c1nc2ccccc2[nH]1	4.47

SMILES	hERG current change (%, negative = inhibition) at 10uM [%]
COc1ccc(C(O)(C(C)C)C(CN2CCOCC2)c2ccccc2)cc1.Cl (stereo not shown)	-28
COc1ccc(CCn2c(=N)c(S(=O)(=O)c3ccccc3)cc3c(=O)n4ccccc4nc32)cc1	10.9
COc1ccc(OC)c(NC(=O)CSc2nc3c(c(=O)n(C)c(=O)n3C)n2C)c1	-7.66
Cc1ccc2nc(NC(=O)CN3C(=O)NC4(CCCCC4)C3=O)sc2c1	-2.4
COc1ccc(C)cc1Nc1nc(C)nc2c1oc1ccccc12.Cl	33.4
CN(c1ccc(C(=O)Nc2ccccn2)cc1)S(=O)(=O)c1ccccc1	8.63
CCOC(=O)c1sc(NC(=O)CCC(=O)O)nc1C	30.4
CC(Sc1ccc(Cl)cc1)C(=O)Nc1ccc(S(=O)(=O)N2CCOCC2)cc1 (stereo not shown)	-22.7
COC(=O)C1=C(c2cc3ccccc3s2)C[C@@H]2CC[C@H]1N2C(=O)NC(C)C	-20.1
Cc1ccc(-n2ncc3c2CCCC3NC(=O)CCC2=NNC(=O)CC2)cc1C (stereo not shown)	0.4
COCCCNC(=O)c1ccc2c(c1)CCN2S(C)(=O)=O	-38.5
CC(CC1C(C#N)=C(N)OC2=C1C(=O)CCC2)c1ccccc1 (stereo not shown)	-10.6
CCOC(=O)C1CCCN(C(=O)c2cc(CN3C(=O)c4ccccc4C3=O)ccc2OC)C1 (stereo not shown)	-9.55
O=C(COC(=O)/C=C/c1ccc([N+](=O)[O-])cc1)NC1CCCCC1	-8.72
Cc1cc(C)c2nc(SCC(=O)NCCN3C(=O)CSC3=O)cc(C)c2c1	-0.927
CC1CCN(C(=O)COC(=O)c2ccc(=O)n(Cc3ccccc3)n2)CC1	-0.635
COc1ccccc1N1C(=NC(=O)COc2ccccc2)SC2CS(=O)(=O)CC21 (stereo not shown)	15
COc1cccc(NC(=O)CN(C)C(=O)c2c(C)nn(Cc3ccc(C)cc3)c2Cl)c1	-7.18
COc1ccc(-c2cc3c(=O)n(CC(=O)Nc4cccc(Cl)c4)ncn3n2)cc1	15.8
CCc1ccc(NC(=O)C(=O)NCC2CCCN2S(=O)(=O)c2cccs2)cc1 (stereo not shown)	-32.2
COc1ccc(CNC(=O)c2sc(=S)n(-c3ccccc3)c2N)cc1	4.31
Cc1[nH]c2ccccc2c1C(=O)COC(=O)C1CC(O)CN1S(=O)(=O)c1ccc(Cl)cc1 (stereo not shown)	-0.342
